PubChem BioAssay (NCATS)
Inconclusive results, whose numbers are uncertain, are shown with a selection of clear calls. No potency is given beside an inconclusive call; the fits are too rough. Calls of active or inactive are those of the source. The call rests on the fitted dose curve; in most records, active means well fitted cell-killing curve with a large enough effect; inconclusive means small, poorly fitted or top-dose-only effect, or effect the other way; inactive means no such curve, though single readings can be large or run the other way.

Experiment: Viability qHTS for spleen associated tyrosine kinase inhibitor (SYKi) drug resistant MV4-11 cells (AID 1963824); further: nearly all actives have a fitted effect of over 35% in size
Conditions: SYKi-resistant MV4-11 viability, CellTiter-Glo, 72 h; series mostly up to 45 µM; viability, % of control: at the top concentration
In short: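 SYK inhibitor-resistant MV4-11 AML cells, 500 per well, added to predispensed compounds and incubated 72 hr at 37 C, 5% CO2. Viability measured by CellTiter-Glo luminescence after 10 min at room temperature.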
Potency means the concentration at half of the fitted maximal effect; tags describe the fitted curve by direction and shape.

SMILES	Potency	viability, % of control
Cc1ncc([N+](=O)[O-])n1CC(O)CCl (stereo not drawn)	inconclusive [rising, full curve, poor fit]	–
C=C1C(=O)O[C@H]2C1CCC(C)=C1C(=O)C=C(C)[C@@]12O (stereo partly drawn)	active: 8.2 µM	–
C=CC/C=C\C/C=C\CCCCCCCc1cccc(O)c1C(=O)O	inconclusive [cytotoxic, single point]	–
CCN(CC)CCCC[C@H](NC(=O)[C@H](CC(C)C)NC(=O)[C@H](C)NC(=O)[C@H](Cc1ccccc1)NC(=O)c1ccc(C(C)(C)C)cc1)C(=O)N[C@@H](CO)C(=O)OC	inconclusive [cytotoxic, partial curve, poor fit]	–
CC1(C)CCCC2(C)C3=C(C(=O)OC3O)C(O)CC12 (stereo not drawn)	–	inactive: 93.6%
CCN[C@@H]1C[C@H](N)[C@@H](O[C@H]2OC(CN)=CC[C@H]2N)[C@H](O)[C@H]1O[C@H]1OC[C@](C)(O)[C@H](NC)[C@H]1O	inconclusive [cytotoxic, partial curve, poor fit]	–
Cc1cccc2c1NC(=O)C2(c1ccc(O)cc1)c1ccc(O)cc1	inconclusive [cytotoxic, full curve]	–
CCOc1ccc(C(=O)OCCN(CC)CC)cc1	–	inactive: 82.2%
C[C@@H]1CC[C@]2(C(=O)O)CC[C@]3(C)C(=CCC4[C@]5(C)C(CC[C@]43C)C(C)(C)[C@@H](O)[C@H](O)[C@@H]5O)C2[C@]1(C)O (stereo partly drawn)	–	inactive: 79.9% [at 17.3 µM]
NC(=O)NNc1ccccc1	–	inactive: 92.6%
CC1=C(C(=O)OC2OC(COC3OC(CO)C(O)C(O)C3O)C(O)C(O)C2O)C(C)(C)CCC1 (stereo not drawn)	–	inactive: 100% [at 17.3 µM]
CC1=C(C(=O)O)/C(=C\CO[C@@H]2O[C@H](CO)[C@@H](O)[C@H](O)[C@H]2O)C(OC(=O)/C=C\c2ccc(O)cc2)C1 (stereo partly drawn)	–	inactive: 93.3% [at 17.3 µM]
FC(F)(F)c1ccccc1-n1ccnc1	inconclusive [rising, full curve, poor fit]	–
O=C(Nc1cccc(Nc2nccc(Nc3cccc(C(F)(F)F)c3)n2)c1)C1CC1	active: 1.84 µM	–
COc1ccc(CN2CCN(CCCSc3cc(C(C)(C)C)c(O)c(C(C)(C)C)c3)CC2)c(OC)c1OC	active: 3.48 µM	–
COc1cc(O)c2c(c1)C1=CC(O)C(O)CC1(C)OC2=O (stereo not drawn)	–	inactive: 89%
CNS(=O)(=O)c1ccccc1Nc1nc(Nc2ccc(N3CCN(C)CC3)cc2OC)ncc1Br	active: 0.0326 µM	–
O=C(O)c1n[nH]c2c1C[C@H]1C[C@@H]21	–	inactive: 90.7%
C/C(=C\CCC(C)CCO)C(=O)O[C@@H]1[C@@H](O)[C@H](OC2OC=C(C(=O)O)C3CCC(C)(O)C23)O[C@H](CO)[C@H]1O (stereo partly drawn)	inconclusive [cytotoxic, partial curve, poor fit]	–
COc1cc(-c2cn(C)c(=O)c3cnccc23)cc(OC)c1CN(C)C	inconclusive [cytotoxic, partial curve]	–
Cc1cccc(OCC(O)CNC(C)(C)C)c1C (stereo not drawn)	–	inactive: 87.4%
Cc1cc(C)cc(C(=O)NOCCCCCC(=O)NO)c1	active: 0.58 µM	–
COc1ccc(CNCc2cccc3ccccc23)cc1	inconclusive [cytotoxic, single point]	–
O=C1COc2nccc(-c3ccccc3F)c2CN1Cc1cc(C(F)(F)F)cc(C(F)(F)F)c1	active: 16.4 µM	–
O=C1NC(=O)C(c2cn(-c3ccccc3)nc2-c2ccc(F)cc2)N1 (stereo not drawn)	inconclusive [cytotoxic, single point]	–
CC(CCc1ccccn1)(CCc1ccccn1)C(=O)c1ccccc1	–	inactive: 96.6%
CN(c1ccc(NC(=O)Nc2ccccc2)cc1)S(=O)(=O)c1cnn(-c2ccc(F)cc2)c1	active: 23.1 µM	–
CCS(=O)c1nc(-c2cccc(OCc3ccccc3)c2)cc(C(F)(F)F)n1 (stereo not drawn)	active: 5.8 µM	–
